Results taken from PubChem BioAssay AID1508624 (National Center for Advancing Translational Sciences (NCATS), 2021).
In all, about 48,000 compounds went through this assay and about 120 (0.25%) were called active. Another 4% or so got no clear call; they are omitted. Calls follow the shape of the dose curve; as a rule, active = well fitted activation curve with a large enough effect; inconclusive = small, poorly fitted or top-dose-only effect, or another doubt; inactive = no such curve, though single readings can be large or run the other way. The list shows a part of the results.

experiment: Primary qHTS for Identification of Small Molecule Activators of Huntingtin-Antisense Promoter Activity; settings: HEK293 HTT-AS promoter firefly luciferase reporter (activity 0% = vehicle and -100% = no light), 24 h; series mostly up to 57.5 µM; activity change, positive = activation: at the top concentration; also: nearly all actives have a fitted effect of over 55% in size
How it was run: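 HEK293 luciferase promoter-reporter cells (2,500/well) plated 24 h, then compounds added at up to 57.5 uM final for 24 h at 37 °C. Firefly luminescence by Dual-Glo, normalized to vehicle (0%) and zero RLU (-100%).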

Activity change, positive = activation, inactive:
Cc1cccc(CN2C(=O)c3ccccc3Sc3ccc(C(=O)NCc4ccco4)cc32)c1 -28%, CCS(=O)(=O)c1ncc(Cl)c(C(=O)N2CCN(c3ccc(OC)cc3)CC2)n1 -94.8%, O=c1c2ccccc2nc(/C=C/c2cccc3ccccc23)n1-c1ccc(F)cc1F -11.9%, NS(=O)(=O)c1ccc(CCNC(=O)C2CCN(c3ncnc4c3nc3n4CCCCC3)CC2)cc1 1.01%, Cc1ccc(CNC(=O)CCc2cn(C)c3ccccc23)cc1 -9.79%, CCC(CC)C(=O)Nc1nnc(S(=O)(=O)N2CCCCCC2)s1 -22.7%, CCC(Sc1nc2c(sc3ccccc32)c(=O)n1CCc1ccc(OC)c(OC)c1)C(=O)N(CC)CC (stereo unspecified) -50.4%, CCOc1ccc(NC(=O)CSC2=Nc3ccccc3C3=NC(CC(=O)NCc4cccs4)C(=O)N23)cc1 (stereo unspecified) -5.6%, COc1cc(-c2cc(OC)c3c(C)oc(C)c3c(=O)c2)ccc1OC(=O)c1ccc(C)cc1 -16.7%, O=C(CSc1n[nH]c(-c2ccccc2Cl)n1)NCCCc1ccccc1 -4.5%, Cc1ccc(-c2cn3c(n2)sc2cc(C(=O)NCCCN4CCCCCC4)ccc23)cc1 -2.57%, CCCN(CCC)C(=O)c1cc2c(=O)n3cccc(C)c3nc2s1 -5%, CC1=C(c2ccc(C)c(C)c2)S(=O)(=O)N=C1N1CCC(C(=O)NC(C)c2ccccc2)CC1 (stereo unspecified) -24.5%, CCc1ccc2oc(C(=O)N(Cc3ccc(N(C)C)cc3)Cc3ccco3)c(C)c2c1 -22.6%, CC(CCc1ccccc1)NC(=O)Cn1c(=O)nc(-c2ccccc2)c2cc(Cl)ccc21 (stereo unspecified) 17.1%, O=C1c2ccccc2-c2onc3c(N4CCN(C5CCCCC5)CC4)cc(NCCO)c1c23 -14.1%, O=C(O)c1ccccc1OP(=O)(O)O -7.18%, CC(=O)c1cccc(NC(=O)C2CCN(c3ncnc4c3nc3n4CCCCC3)CC2)c1 -18.9%, Clc1ccc(CN2CCN(c3ncnc4sc5c(c34)CCCC5)CC2)cc1Cl -20.9%, c1cc(N[C@@H]2CCNC2)nc(-c2cnc3ccc(-c4cn[nH]c4)cn23)c1 -33.1%, COc1ccc(CNC(=O)Cc2c(C(=O)O)c(C)cn2C)cc1 -8.13%, Cc1ncc([N+](=O)[O-])n1CC(C)O (stereo unspecified), O=C(NCc1ccc(F)cc1Cl)c1cc(=O)[nH]c2ccc(S(=O)(=O)N3CCCCC3)cc12 -16.3%, COc1ccc(-c2nc3scc(CCNS(=O)(=O)c4ccc5c(c4)OCCO5)n3n2)cc1OC 0.0334%, Cc1c(-c2ccccc2)c(=O)oc2ccc(OC(=O)N3CCOCC3)cc12 -9.65%, CCOc1ccc(C(=O)Nc2c(C(=O)Nc3ccccc3OC)oc3ccccc23)cc1OCC 16%, Cc1cc(C)cc(OCCSc2nc3ccc(NC(=O)c4cccs4)cc3s2)c1 -30.9%, O=C(Cn1cc(C(=O)C2CCCCC2)c2ccccc21)Nc1ccccc1Cl -33.7%, C/C=C(/C(=C/C)c1ccc(O)cc1)c1ccc(O)cc1 -28.7%, O=C(Cn1c(=O)n(Cc2nc(-c3ccccc3)no2)c(=O)c2cc3c(cc21)OCO3)Nc1ccccc1 -9.78%, CCOc1ccc(-n2c(SCC(=O)Nc3cc(C)ccc3C)nc3c([nH]c4ccccc43)c2=O)cc1 -15.6%, CCC(C)n1c(=O)c2sccc2n2c(CCCC(=O)N3CCN(c4ccccc4)CC3)nnc12 (stereo unspecified) -4.47%, COc1cccc(Cc2nc3ccccc3nc2SCC(=O)Nc2cccc(C)c2)c1 -3.33%, Cc1ccc(Cn2cc(S(=O)(=O)c3cccc(C)c3)c(=O)c3cc(F)c(N4CCOCC4)cc32)cc1 -2.62%, O=C(Cc1ccccc1)Nc1sc2c(c1C(=O)Nc1ccccc1Cl)CCCCC2 -16.3%, COc1ccc2cc([C@H](C)C(=O)O)ccc2c1 3.96%, CC(C)c1ccc(NC(=O)CSC2=Nc3ccccc3C3=NC(CCC(=O)NC4CCCCC4)C(=O)N23)cc1 (stereo unspecified) 6.92%, COC(=O)c1cc(Nc2nc3ccccc3nc2NS(=O)(=O)c2ccc(C)cc2)ccc1Cl 19.7%, COc1ccc2c(c1)CCc1c(C(=O)Nc3cc(OC)c(Cl)cc3OC)noc1-2 -6.28%, Cc1ccc(CN(C(=O)c2ccc(C(C)(C)C)cc2)c2ccccn2)o1 -54.3%, Cc1c(N)cccc1C(F)(F)F 0.294%, COc1ccccc1NC(=O)CSc1ncc2c(n1)-c1ccccc1N(Cc1ccccc1C)S2(=O)=O 4.75%, CCOC(=O)C1CCCN(S(=O)(=O)c2cc(-c3cc(C)no3)ccc2OC)C1 (stereo unspecified) -4.74%, CC(C)CC(=O)Nc1ccc2nc(SCC(=O)N3CCc4ccccc43)sc2c1 -43.1%, CCOc1ccccc1CNC(=O)c1sc2ncccc2c1-n1cccc1 -21.2%, CCOc1cc(C2c3c(-c4cc(C)ccc4O)n[nH]c3C(=O)N2CCCOC(C)C)ccc1O (stereo unspecified) -30.4%, CCn1ccc2cc(S(=O)(=O)N3CCCN(C(=O)Nc4ccccc4F)CC3)ccc21 -19.1%, COc1cccc(Cn2c(SCC(=O)N3CCN(c4ccc(F)cc4)CC3)nc3ccccc32)c1 -23.1%, O=C(CSc1nnc(-c2ccc3c(c2)OCO3)o1)Oc1ccccc1 -31.3%, O=C(COC(=O)c1cc(-c2cccs2)nc2ccccc12)c1ccc(F)cc1 33.9%, O=c1cc(-c2ccccc2)c2ccc3c(c2o1)CN(Cc1cccc(Cl)c1)CO3 -22.7%, Cc1ccccc1NC(=O)Cn1c(=O)n(CCCC(=O)NCc2ccc3c(c2)OCO3)c(=O)c2ccccc21 1.4%, CCOc1ccc(CC(=O)Nc2cccc(-c3nc4cccnc4s3)c2C)cc1 -4.57%, COc1ccc2[nH]cc(CCN=C(NC(=O)c3ccccc3F)Nc3nc(C)cc(C)n3)c2c1 -33.3%, COc1ccc(Cl)cc1NC(=O)c1c(NCc2ccc(C)o2)sc2c1CCC(C)C2 (stereo unspecified) -19.1%, Cc1ccc(-c2cn3cccnc3n2)cc1NC(=O)C(C)(C)Oc1ccc(Cl)cc1 -32.3%, C=C(C)CSc1nc2sc3c(c2c(=O)n1Cc1ccccc1)CC(C)(CC)OC3 (stereo unspecified) -19.5%, Cc1c(C(=O)Nc2ccccc2Br)oc2ccc(S(=O)(=O)N3CCCCCC3)cc12 7.49%, COc1cccc(NCc2cccn2-c2nnc(N3CCC(C)CC3)s2)c1 -60.6%, CCC(C)NC(=O)CN1C(=O)c2cccnc2Sc2ccccc21 (stereo unspecified) -5.69%, C[C@]12CCC(=O)C=C1[C@@H]1C[C@@H]1[C@H]1[C@@H]3[C@@H]4C[C@@H]4[C@@]4(CCC(=O)O4)[C@@]3(C)CC[C@@H]12 -18.4%, Cc1cccc(Nc2ncnc3onc(-c4ccc(Cl)cc4)c23)c1C -14.5%, Cc1ccc2oc3c(c(=O)c2c1)C(c1ccc(O)cc1)N(CCCN(C)C)C3=O (stereo unspecified) -17.1%, Cc1ccc(-n2c(=O)c3cccnc3n2CC(=O)NCc2ccc(Cl)cc2)cc1 -36.1%, COC(=O)c1ccc([C@@H]2Nc3c(OC)ccc(C)c3[C@@H]3C=CC[C@@H]32)cc1 -15.1%, Nc1c(C(=O)Nc2ccc(F)cc2)sc2nc(-c3cccs3)cc(C(F)(F)F)c12 -17.5%, Cc1cc(F)ccc1NC(=O)C(c1ccccc1)N1Cc2ccccc2C1=O (stereo unspecified) -16.9%, COc1ccc(C(=O)Nc2cccc(C(=O)OCc3cc(=O)n4nc(C5CC5)sc4n3)c2)cc1 -4.32%, CC1N=C2c3ccccc3N=C(SCC(=O)NCCc3ccc(Cl)cc3)N2C1=O (stereo unspecified) 22.2%, CCn1c2ccccc2c2cc(CN3CCN(Cc4ccc(Br)cc4)CC3)ccc21 -41.3%, O=C(CCS(=O)(=O)c1cc2c(cc1Cl)NC(=O)CO2)NCc1ccc(Cl)cc1 -22.8%, O=[N+]([O-])c1ccc(Nc2ccccc2-c2ccccc2)c2nonc12 -49%, CNC(=O)C1CCC(Cn2c(=O)c3sccc3n(Cc3cc(C)ccc3C)c2=O)CC1 (stereo unspecified) -4.75%, COc1ccc(N2C(=O)NC(NS(=O)(=O)c3ccc(Cl)cc3)(C(F)(F)F)C2=O)cc1 (stereo unspecified) -10.9%, Cc1ccccc1-c1nc(CN2CCCC(C(=O)NCc3ccc(Cl)cc3)C2)c(C)o1 (stereo unspecified) -15.4%, CCc1ccc(S(=O)(=O)c2cn(CC(=O)Nc3ccc(F)c(Cl)c3)c3ccccc3c2=O)cc1 -28.9%, CCN(C(=O)Cn1c(C(=O)OC)cc2sc(Cl)cc21)c1cccc(C)c1 4.57%, COc1ccc([N+](=O)[O-])cc1NC(c1nnc(-c2ccccc2)o1)c1ccccc1F (stereo unspecified) -7.92%, CSc1nc(NCCOC(C)=O)c(C#N)c(-c2ccc(C(C)(C)C)cc2)n1 -29.6%, COc1ccc(C2C(=O)N(C3CCCCC3)CC(=O)N2CCc2ccc(C)cc2)cc1OC (stereo unspecified) -13.1%, Cc1ccc2nc(CN3CCN(C(=O)Nc4ccc(F)cc4)CC3)oc2c1 -25.1%, NC(CS)C(=O)O (stereo unspecified) -0.0512%, Cc1ccc(CN2C(=O)C(O)(c3c(C)[nH]c4ccccc34)c3ccccc32)cc1 (stereo unspecified) -19.9%, COc1ccc(NC(=O)C2CCC(CNS(=O)(=O)c3cccc4nsnc34)CC2)cc1OC (stereo unspecified) -20.2%, COCCNC(=O)CCCn1c(SCC(=O)Nc2ccc(F)cc2)nc2c(sc3ccccc32)c1=O -33.4%, COc1ccc(C(=O)n2nc(N)c3cc4ccc(C)cc4nc32)cc1OC -4.75%, CCOC(=O)Cn1c(=N)n(Cc2ccc(C(C)(C)C)cc2)c2ccccc21 -43.7%, COC(=O)c1cc2oc(C)cc2n1Cc1ccccc1Cl -10.6%, COc1ccccc1C1NC(=O)c2n[nH]c(-c3cccs3)c21 (stereo unspecified) -33.4%, CC1CCN(C(=O)c2c(NC(=O)c3ccccc3Cl)sc3c2CCC(C(C)(C)C)C3)CC1 (stereo unspecified) -8.19%, Cc1cc2nc(-c3ccc(OCc4ccccc4C)cc3)cc(C(F)(F)F)n2n1 -4.38%, Cc1cc(C)cc(-n2ccnc2SCC(=O)Nc2cccc3ccccc23)c1 -30.4%, CCc1ccc(OCC(=O)Nc2ccc3c(c2)c2ccccc2n3CC)cc1 -30.4%, N#Cc1c[nH]n2c(NC3CCCCC3)c(-c3ccc(F)cc3)nc12 14.8%, Cc1cccc(-n2ccnc2SCC(=O)Nc2cccc3ccccc23)c1 -25%, Cc1cc(C)cc(OCCSc2nc3ccc(NC(=O)c4ccc5c(c4)OCO5)cc3s2)c1 -23.1%
